Test results as given in PubChem BioAssay AID686979 (National Center for Advancing Translational Sciences (NCATS), 2013).
Values joined by “and” are separate entries in the source; they are usually repeats but may differ in a detail not shown here. Equal values may be shown once. Among all 420,000 compounds or so, about 50,000 (12%) were called active. This list was built around the results that the source calls inconclusive (neither active nor inactive); the mix of calls is not that of the screen. The call rests on the fitted dose curve; in most records, active means well fitted inhibition curve with a large enough effect; inconclusive means small, poorly fitted or top-dose-only effect; inactive means flat fitted curve, though single readings scatter. Potencies beside an inconclusive call are fits to weak or partial responses and may not hold up.

Test: qHTS for Inhibitors of human tyrosyl-DNA phosphodiesterase 1 (TDP1): qHTS in cells in presence of CPT; further: nearly all actives have a fitted effect of over 55% in size
Conditions: chicken DT40 Tdp1-/-;hTDP1 cells + 20 nM CPT, ATP luminescence, 48 h; activity change, negative = growth inhibition: at 46.2 µM (top of the series) unless noted
Method in brief: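 Chicken DT40 Tdp1-/- cells stably complemented with human TDP1 were seeded at 400 cells/well in medium containing 20 nM camptothecin, exposed to pin-transferred compounds, and grown at 37 °C for at least 48 hr. Viability was read as ATP luminescence.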
On the % scale 0 is the no-effect control and ±100 the full control effect; potency means the concentration at half of the fitted maximal effect; tags describe the fitted curve by direction and shape.

Row | Structure (SMILES) | Potency | activity change, negative = growth inhibition
1 | COc1ccc(OC)c(NC(=O)Cc2nn(C)c(=O)c3ccccc23)c1 | active: 16.4 µM | –
2 | COc1ccc(N2c3ccccc3CN(Cc3ccccc3)CC2Cc2cc(OC)c(OC)c(OC)c2)cc1 (stereo unspecified) | inconclusive: 20.6 µM [inhibitor, single point] | –
3 | O=C(Nc1cccc([N+](=O)[O-])c1)N1CCN(c2ccccc2)CC1 | – | inactive: -17.4%
4 | CCN(CC)C(=O)CSc1nc(O)c(Cc2ccccc2)c(=O)n1-c1ccc(C)cc1 | inconclusive: 25.9 µM [inhibitor, single point] | –
5 | CCSC1=C(C#N)C2(CCCC2)C(C#N)=C(N)N1 | active: 7.31 µM | –
6 | CC1(C)CC(=O)C(C=NCC(N)=O)=C(O)C1 | – | inactive: -20.8%
7 | CSc1nc2ncc(C#N)cn2n1 | – | inactive: 4%
8 | CN(C)S(=O)(=O)c1ccc(SCC(=O)N2CC(=O)Nc3ccccc32)nc1 | inconclusive: 29.1 µM [inhibitor, single point] | –
9 | COc1cc(OC)c(NC(=O)/C=C/C(=O)O)cc1Cl | – | inactive: 3.38%
10 | CCCCn1c(-c2ccc(Cl)cc2)nc2c(=O)n(C)c(=O)[nH]c21 | – | inactive: -5.59%
11 | Cc1ccccc1C(=O)NCC(c1ccc(N(C)C)cc1)N1CCCC1 (stereo unspecified) | – | inactive: -1.89%
12 | CCN(CC)c1ccc(S(=O)(=O)N2CCOCC2)cc1NC(=O)CSc1nncn1C | – | inactive: -27.2%
13 | Cc1ccc(NC(=O)NC2CCCCC2)c(C)c1 | active: 1.03 µM | –
14 | O=C(Cc1ccccc1[N+](=O)[O-])NCC1(c2cccc3c2OCO3)OCCO1 | – | inactive: -5.41%
15 | COc1ccc(C(C)=O)cc1Cn1c(C)c(C(=O)NCc2ccc3c(c2)OCO3)sc1=O | inconclusive: 18.4 µM [inhibitor, single point] | –
16 | CSc1cccc(NC(=S)N(Cc2ccccc2)Cc2ccccn2)c1 | inconclusive: 18.4 µM [inhibitor, single point] | –
17 | COc1cccc(N2C(=O)CC(N3CCC(C(N)=O)(N4CCCCC4)CC3)C2=O)c1 (stereo unspecified) | inconclusive: 29.1 µM [inhibitor, single point] | –
18 | O=C(Nc1ccc(Oc2ccc(C(F)(F)F)cn2)c(Cl)c1)C1CC1 | inconclusive: 16.4 µM [inhibitor, partial curve] | –
19 | Fc1ccc(Nc2nc(SCc3ccc(Cl)cc3)nc3ccccc23)cc1 | inconclusive: 29.1 µM [inhibitor, single point] | –
20 | COc1cccc(C(NC(C)=O)c2nc(-c3ccccc3OC)cs2)c1 (stereo unspecified) | inconclusive: 29.1 µM [inhibitor, single point] | –
21 | Cc1cccc(-c2cc(C(=O)Nc3cccnc3)c3ccccc3n2)c1 | active: 20.6 µM | –
22 | Cc1cc2nc(-c3ccc(F)cc3)c(Cc3cccc(Cl)c3)n2c(C)c1Br | active: 23.1 µM | –
23 | CNC(=O)C1CCC(Cn2c(=O)c3sccc3n(CC(=O)N3CCCCC3C)c2=O)CC1 (stereo unspecified) | – | inactive: -17.3%
24 | O=S(=O)(NCC(c1ccco1)S(=O)(=O)c1ccccc1)c1cc(F)ccc1F (stereo unspecified) | inconclusive: 29.1 µM [inhibitor, single point] | –
25 | CC(C)(C)c1cc(C(=S)N2CCCC2)cc(C(C)(C)C)c1O | inconclusive: 29.1 µM [inhibitor, single point] | –
26 | Cc1nc(SC(C)C(=O)NCC2CCCO2)c2cc(-c3ccccc3)sc2n1 (stereo unspecified) | active: 14.6 µM | –

Row | Structure (SMILES) | Potency | activity change, negative = growth inhibition
27 | C=CC[C@H](CC(=O)N(CCO)Cc1ccccc1)C(=O)N[C@H](COC(=O)[C@@H](CC=C)CC(=O)OC(C)(C)C)Cc1ccccc1 | active: 14.6 µM | –
28 | O=C1CC(c2ccc(O)c(O)c2)Oc2c1ccc(O)c2O (stereo unspecified) | – | inactive: 10.6%
29 | CCOC(=O)C1CCN(C(=O)c2ccccc2Oc2ccccc2)CC1 | inconclusive: 11.2 µM [inhibitor, single point] | –
30 | CN(C)CCCNc1oc(-c2ccc(Cl)cc2)nc1C#N | inconclusive: 29.1 µM [inhibitor, single point] | –
31 | O=C(CCS(=O)(=O)c1ccc(Br)s1)Nc1c(F)cccc1F | – | inactive: -17%
32 | Cc1noc(C)c1CC(=O)N1CCOc2c(cc(-c3nc4ccccc4s3)cc2OC2CCOC2)C1 (stereo unspecified) | – | inactive: 11.5% [at 9.04 µM]
33 | O=c1/c(=C\c2ccc(F)cc2)sc2n1CCCN=2 | inconclusive: 23.1 µM [inhibitor, single point] | –
34 | COc1cnc(-c2ccccn2)nc1NC(C)C | active: 0.13 µM | –
35 | COc1cc2c(C(=O)O)c(C)n(C)c2c2ccccc12 | – | inactive: -17.2%
36 | O=C(NCCc1ccccc1)c1c(O)c2ccccc2[nH]c1=O | inconclusive: 23.1 µM [inhibitor, single point] | –
37 | Brc1ccc(N=C(c2ccccc2)c2ccncc2)cc1 | – | inactive: -15.1%
38 | COc1ccc(NC(=O)COC(=O)CC23CC4CC(CC(C4)C2)C3)c([N+](=O)[O-])c1 | inconclusive: 11.6 µM [inhibitor, partial curve] | –
39 | Cc1ccccc1-c1nc2cc(Cl)ccc2c(=O)o1 | inconclusive: 25.9 µM [inhibitor, single point] | –
40 | COCCCCOc1cc2nc(N3CCCN(C)CC3)nc(NC3CCN(C)CC3)c2cc1OC | active: 12.6 µM | –
41 | CN1CCN(C(=O)C2CCCN(S(=O)(=O)c3ccc(Cl)cc3)C2)CC1 (stereo unspecified) | – | inactive: -8.11%
42 | COc1ccc(NC(=O)CCc2nc3cccnc3n2Cc2cccs2)c(OC)c1 | inconclusive: 18.4 µM [inhibitor, single point] | –
43 | CC(C)[C@H](NC(=O)c1ccccc1)C(=O)OCC(=O)Nc1sccc1C(N)=O | – | inactive: -13.3%
44 | COc1ccccc1-c1nc2c3ccccc3nc(=S)n2[nH]1 | inconclusive: 29.1 µM [inhibitor, single point] | –
45 | Cc1ccc2oc(C(=O)NCC(c3ccco3)N3CCCC3)c(C)c2c1 (stereo unspecified) | active: 29.1 µM | –
46 | CC(=O)CSc1nnc2cc(C)c3ccccc3n12 | – | inconclusive: -30.9% [inhibitor]
47 | CC1(C(=O)NCc2cccs2)CCN1C(=O)Cc1cccc2ccccc12 (stereo unspecified) | active: 29.1 µM | –
48 | O=C(COC(=O)c1cccc(-n2cnnn2)c1)c1ccc(Br)cc1 | – | inactive: -1.91%
49 | COC(=O)C(C(=O)OC)c1ccccc1NS(=O)(=O)c1c(C)cc(C)cc1C | active: 16.4 µM | –
50 | COc1ccc(C(CC(=O)c2ccccc2)CC(=O)c2ccccc2)cc1OC | – | inactive: 18.3%
51 | Cc1cc(N2CCN(c3ccccc3F)CC2)n2cnnc2n1 | inconclusive: 23.1 µM [inhibitor, single point] | –
52 | CCCSc1ncc(Cl)c(C(=O)Nc2ccc(OC)cc2OC)n1 | inconclusive: 25.9 µM [inhibitor, single point] | –

Row | Structure (SMILES) | Potency | activity change, negative = growth inhibition
53 | CCN(CC)C(=O)Cn1cc(SCC(=O)NC2CCCCC2)c2ccccc21 | – | inactive: -22.7%
54 | CC1=CC(C)(C)n2c(O)c(N=NC(N)=S)c3cccc1c32 | inconclusive: 2.91 µM [inhibitor, full curve] | –
55 | CC(C)c1ccc(NC(=O)CSc2nc(=O)[nH]c3c2CCCC3)cc1 | inconclusive: 23.1 µM [inhibitor, single point] | –
56 | COc1ccccc1N1CCN(CC(=O)c2c(C)n(C)c3ccccc23)CC1 | inconclusive: 7.31 µM [inhibitor, partial curve, poor fit] | –
57 | CN(c1ccccc1)S(=O)(=O)c1ccc(NC(=O)c2ccccc2C(=O)O)cc1 | inconclusive: 29.1 µM [inhibitor, single point] | –
58 | COc1ccc(C(=O)Nc2ccc3nc(N4CCN(C)CC4)cc(C)c3c2)c(OC)c1 | inconclusive: 29.1 µM [inhibitor, single point] | –
59 | CC1CCN(CC(O)COC2CC(C)CC(C)(C)C2)CC1 (stereo unspecified) | inconclusive: 23.1 µM [inhibitor, single point] | –
60 | O=C(NN=C1CCN(Cc2ccccc2)CC1)C(O)c1ccccc1 (stereo unspecified) | – | inactive: 0.824%
61 | O=c1[nH]c2cc3c(cc2cc1CN(CCO)S(=O)(=O)c1ccccc1Cl)OCCO3 | – | inactive: -25.2%
62 | O=C(NC(=S)NCCC1=CCCCC1)c1ccco1 | inconclusive: 29.1 µM [inhibitor, single point] | –
63 | CCOc1cc(C2C(C(=O)c3ccc(C)o3)=C(O)C(=O)N2CCc2ccccc2)ccc1O (stereo unspecified) | – | inactive: -13.2%
64 | O=C(CN1C(=O)C2CC=CCC2C1=O)Nc1nnc(C2CC2)s1 (stereo unspecified) | – | inactive: -6.75%
65 | C[N+]1(CC(=O)c2ccc(F)cc2)CCc2ccccc2C1 (stereo unspecified) | – | inactive: -10.8%
66 | Cc1ccc(CN2C(=O)SC(Nc3ccccc3)C2=O)cc1 (stereo unspecified) | – | inactive: -16.3%
67 | C(/CCc1ccccc1)=N\Nc1nc2ccccc2[nH]1 | inconclusive: 20.6 µM [inhibitor, single point] | –
68 | Cc1cc(Br)ccc1NC(=O)CN(C)C(=O)CSC(=S)N1CCCC1 | – | inactive: -21.7%
69 | COc1cccc(CNC(=O)CCn2ccc3cc(S(=O)(=O)N4CCCC4)ccc32)c1 | inactive and inconclusive: 18.4 µM [inhibitor, single point] | –
70 | O=C(NCCn1cc(SCc2ccc(C(F)(F)F)cc2)c2ccccc21)c1ccccc1F | inconclusive: 18.4 µM [inhibitor, single point] | –
71 | COc1cccc(N2CCN(C(=S)Nc3cccc(C)c3)CC2)c1 | inconclusive: 9.2 µM [inhibitor, partial curve] | –
72 | COc1ccccc1C1C2CCCCC2(O)CCN1CC(=O)Nc1ccccc1 (stereo unspecified) | inconclusive: 18.4 µM [inhibitor, single point] | –
73 | CCOC(=O)C1CCCCN1C(=O)c1ccc2nc(Cc3ccc(OC)cc3)oc2c1 (stereo unspecified) | inconclusive: 29.1 µM [inhibitor, single point] | –
74 | Cc1ccccc1Cn1nc(C)c(NC(=O)c2ccccc2)c1C | – | inactive: 0.706%
75 | COC(=O)[C@]12CCCCC=C1N(Cc1ccc3c(c1)OCO3)C(=O)[C@H](CC(=O)NCCCCc1ccccc1)C2 | inconclusive: 29.1 µM [inhibitor, single point] | –
76 | CN(Cc1ccccc1)C(=O)c1ccc(COc2ccccc2)cc1 | inconclusive: 29.1 µM [inhibitor, single point] | –
